The results in this text go back to PMC4336329 (PLoS ONE, 2015).

About 2,200 (0.71%) of roughly 310,000 compounds showed an effect of 50% or more. Effects have a minus sign here. The list shows a part of the results.

Sequence of human ether-à-go-go-related gene (hERG) potassium channel (Q12809 whole entry, looked up): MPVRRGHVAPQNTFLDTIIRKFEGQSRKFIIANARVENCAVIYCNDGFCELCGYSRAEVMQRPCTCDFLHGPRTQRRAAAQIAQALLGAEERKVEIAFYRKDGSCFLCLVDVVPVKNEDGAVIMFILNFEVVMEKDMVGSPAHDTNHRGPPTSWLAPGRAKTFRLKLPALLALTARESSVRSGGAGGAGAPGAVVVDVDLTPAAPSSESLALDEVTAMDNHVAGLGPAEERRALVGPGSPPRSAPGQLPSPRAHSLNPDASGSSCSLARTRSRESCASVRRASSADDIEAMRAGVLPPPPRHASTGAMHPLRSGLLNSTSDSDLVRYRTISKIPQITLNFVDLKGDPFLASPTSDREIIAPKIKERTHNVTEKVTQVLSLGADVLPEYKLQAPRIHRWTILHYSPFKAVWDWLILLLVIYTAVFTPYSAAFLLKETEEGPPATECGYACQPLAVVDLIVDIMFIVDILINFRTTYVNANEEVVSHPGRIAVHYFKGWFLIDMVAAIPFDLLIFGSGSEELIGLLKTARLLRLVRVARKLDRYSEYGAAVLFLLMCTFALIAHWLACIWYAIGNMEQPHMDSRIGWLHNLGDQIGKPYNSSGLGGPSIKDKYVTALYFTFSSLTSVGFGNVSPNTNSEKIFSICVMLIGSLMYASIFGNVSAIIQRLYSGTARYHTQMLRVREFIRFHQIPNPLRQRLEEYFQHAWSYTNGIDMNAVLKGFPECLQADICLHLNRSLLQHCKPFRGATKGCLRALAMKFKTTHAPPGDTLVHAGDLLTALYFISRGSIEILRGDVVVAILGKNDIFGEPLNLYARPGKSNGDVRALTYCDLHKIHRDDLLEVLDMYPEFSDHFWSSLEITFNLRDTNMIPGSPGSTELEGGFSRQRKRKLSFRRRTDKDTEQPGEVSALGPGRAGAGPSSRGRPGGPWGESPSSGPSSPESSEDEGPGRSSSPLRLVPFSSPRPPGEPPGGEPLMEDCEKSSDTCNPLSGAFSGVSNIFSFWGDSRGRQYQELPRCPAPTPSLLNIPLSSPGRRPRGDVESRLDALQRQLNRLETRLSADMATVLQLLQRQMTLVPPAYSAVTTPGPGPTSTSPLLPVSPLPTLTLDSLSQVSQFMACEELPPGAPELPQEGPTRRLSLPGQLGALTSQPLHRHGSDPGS

The assay concerns the target human ether-à-go-go-related gene (hERG) potassium channel (human, UniProt Q12809). Put plainly: primary screen, population patch clamp on CHO cells stably expressing hERG.
Consider `O=C(CN1C(=O)c2ccccc2S1(=O)=O)Nc1ccccn1`, for which the “hERG current change (%, negative = inhibition) at 1uM” value turned out to be 9.6%. In the case of `CCOC(=O)c1c(C)[nH]c(C)c1S(=O)(=O)N1CCN(C(=O)c2ccco2)CC1`, the “hERG current change (%, negative = inhibition) at 1uM” value was found to be 19.8%. With `CC1(C)Cc2c(cnn2-c2ccccc2)C(=O)/C1=N\NC(=O)c1ccccc1O`, the “hERG current change (%, negative = inhibition) at 1uM” value was 6.64%. The result for `Cc1ccc(-c2cc3onc(-c4ccccc4)c3c(=O)n2C)cc1` reads 7.47%; that for `Clc1c(-c2ccccc2)nnn1-c1ccccc1`, -2.38%; that for `CN1CCCN=C1/C=C/c1cccs1.O=C(O)C(O)C(O)C(=O)O`, 10.9%.

`CCNc1nc(NCc2ccccc2)nc(SCC(=O)Nc2ccccc2)n1`: the “hERG current change (%, negative = inhibition) at 1uM” value is 2.94%. As for `Cc1ccc(-c2nn3c(C)nnc3s2)cc1NC(=O)c1cccnc1`, the “hERG current change (%, negative = inhibition) at 1uM” value is given as -9.12%.

For the molecule `Cn1c(CCNC(=O)c2cccs2)nnc1SCC(=O)N1CCN(c2ccccc2)CC1`, the “hERG current change (%, negative = inhibition) at 1uM” value is 12.1%. The result for `CCCCOc1ccc(C(=O)OCC(=O)N2CCOCC2)cc1` reads 9.82%; that for `CC(C)C(CO)NC(=O)CC(=O)NC(CO)C(C)C` (stereo not shown), -1.24%; that for `CN(C(=O)CCn1c(=S)oc2ccccc21)C1CCCCC1`, -2.64%. The same measure for `COc1ccc(C(C)=O)cc1CC(C(=O)c1ccc(C)cc1)N(C)C` (stereo not shown): 3.16%; for `COc1ccc(-c2nc3n(c(=O)c2C#N)CCS3)cc1OC`: 10.1%; for `CC(=O)c1ccc(NC2c3ncccc3C(=O)N2Cc2ccc(F)cc2)cc1` (stereo not shown): -10.4%. The result for `COc1ccc(C2NC(c3ccc(OC)cc3)C(c3ccccc3)C(=O)C2c2ccccc2)cc1` (stereo not shown) reads -0.694%; that for `CCOC(=O)Nc1ccc2c(c1)N(C(=O)CCN(C)C)c1ccccc1S2.Cl`, -5.69%. As to `N#Cc1c(C(F)(F)F)cc(=O)n2c1[nH]c1ccccc12`, the “hERG current change (%, negative = inhibition) at 1uM” value came out at 15.5%.

With `CC1CCC2C(=O)N(c3ccc(C(=O)Oc4cccc5cccnc45)cc3)C(=O)C2C1` (stereo not shown), the “hERG current change (%, negative = inhibition) at 1uM” value was determined as 5.78%.

With `Cc1cc(C)c(S(=O)(=O)c2cccc(Cl)c2)c(Cl)n1`, the “hERG current change (%, negative = inhibition) at 1uM” value came out at 9.47%. For `O=[N+]([O-])c1cccc(CN2[C@@H](Cc3ccccc3)COCCS2(=O)=O)c1`, the “hERG current change (%, negative = inhibition) at 1uM” value was found to be 8.26%.

On to `CCN(CC(=O)Nc1ccccc1C(=O)OC)S(=O)(=O)c1ccccc1`, for which the “hERG current change (%, negative = inhibition) at 1uM” value was determined as 6.88%. With `Cc1ccc(S(=O)(=O)N/N=C(\c2ccccc2)C2CC2)cc1`, the “hERG current change (%, negative = inhibition) at 1uM” value was found to be 10.7%. The result for `COCC(=O)N(C)C1(c2nnnn2CCOC(=O)Nc2cccc3ccccc23)CCCC1` reads 12.5%. The same measure for `O=c1c2ccccc2n(CC(O)CN2CCOCC2)c2ccccc12` (stereo not shown): 1.17%; for `CCOC(=O)N1CCN(c2nc(-c3ccco3)cc(C(F)(F)F)n2)CC1`: 6.85%. The same measure for `CC1CCCC(NC(=O)COC(=O)COc2ccc(Cl)cc2)C1C` (stereo not shown): 13.8%; for `C=CCN(C(=O)c1cccc(S(=O)(=O)N2CCN(C)CC2)c1)c1nc(-c2ccccc2)cs1`: 6.96%. As to `Cc1ccccc1NC(=O)Cc1nnc(SCC(=O)Nc2ccccc2)n1C`, the “hERG current change (%, negative = inhibition) at 1uM” value is reported as 8.03%.

For the molecule `CCN(CC)c1ccc(/C=N/N2CCN(Cc3ccc(Cl)cc3)CC2)c(O)c1`, the “hERG current change (%, negative = inhibition) at 1uM” value was found to be 7.28%. The same measure for `CCOc1ccc(-c2nnc(SCC(=O)NC(C)(C)C)nc2-c2ccc(OCC)c(OC)c2)cc1OC`: 8.32%. Turning to `O=C(NCCOc1ccc(Cl)cc1)c1cccc(S(=O)(=O)N2CCCC2)c1`, the “hERG current change (%, negative = inhibition) at 1uM” value is -6.99%. The result for `CCOC(=O)c1sc(NC(=O)CSc2n[nH]c(-c3ccncc3)n2)c(C#N)c1C` reads 15.6%; that for `CC(NCC(=O)Nc1ccccc1C(=O)NC1CC1)c1ccc(S(C)(=O)=O)cc1` (stereo not shown), 10.9%.

For `COc1ccc(Nc2nc(C)cc(C)n2)cc1Cl.Cl`, the “hERG current change (%, negative = inhibition) at 1uM” value was 8.61%. The same measure for `CCOC(=O)c1ccc(Nc2nc(C(=O)OCC)nc3ccccc23)cc1`: 4.76%; for `CC(=O)Nc1ccc(S(=O)(=O)N2CCC(NC(=O)C(Cc3cccc(F)c3)NC(C)=O)CC2)cc1` (stereo not shown): 18.5%.

As to `CCc1ccc(C2(O)CC(C(F)(F)F)=NN2C(=O)Cc2ccc([N+](=O)[O-])cc2)cc1` (stereo not shown), the “hERG current change (%, negative = inhibition) at 1uM” value came out at 2.37%.

Take `O=C1CC(N2CCN(c3ccc(Cl)cc3)CC2)C(=O)N1c1ccc(F)cc1` (stereo not shown): the “hERG current change (%, negative = inhibition) at 1uM” value is on record as 11%. The same measure for `COc1ccc(N2C(=O)CSC2c2ccccc2F)c(OC)c1` (stereo not shown): 10.6%; for `CCc1ccc(C(CNc2nc(C(F)(F)F)nc3ccccc23)N(C)C)cc1` (stereo not shown): 12.1%. The result for `CCOC1=C/C(=C/c2c(N)n3nc(S(=O)(=O)CC)sc3nc2=O)C=CC1=O` reads -3.94%.

For `CC[C@@]12C(=O)N(c3cccc(F)c3)C(=O)N1[C@H](c1ccc(F)cc1)[C@@H]1C(=O)N(C3CCCCC3)C(=O)[C@@H]12`, the “hERG current change (%, negative = inhibition) at 1uM” value was 17.4%. `CCOC(=O)Cc1csc(/N=C/c2c(O)n(-c3ccc(C)cc3C)c(=O)c3ccccc23)n1`: the “hERG current change (%, negative = inhibition) at 1uM” value is 0.725%.

Turning to `O=C(Nc1ccccc1)Nc1ccc(Cl)c(S(=O)(=O)N2CCOCC2)c1`, the “hERG current change (%, negative = inhibition) at 1uM” value is on record as 9.5%. The result for `Cc1ccc(OCCNC(=O)c2ccc(COc3ccccc3)o2)cc1` reads 11.2%. The same measure for `COc1ccc(-c2cc3nc(C)cc(-c4ccc(OC)cc4)n3n2)cc1`: 8.87%; for `Cc1cc(C)c2c(C)c(C(=O)Nc3c(C)n(C)n(-c4ccccc4)c3=O)oc2c1`: -0.763%; for `Cc1ccc(S(=O)(=O)N2CCN(C(=O)c3cc(S(=O)(=O)N(C)C)ccc3N3CCCC3)CC2)cc1`: 13.1%. With `O=C(COC(=O)c1ccc(NC(=O)C2CC=CCC2C(=O)O)cc1)c1ccccc1` (stereo not shown), the “hERG current change (%, negative = inhibition) at 1uM” value amounted to 9.94%.

In the case of `Cc1nn(CCOc2ccccc2)c(=O)n1-c1ccccc1F`, the “hERG current change (%, negative = inhibition) at 1uM” value is given as 18.9%. The result for `CC(=O)c1cccc(NC(=O)N2CCc3ccccc3C2)c1` reads 9.5%; that for `COc1nc(OC)nc(Oc2ccc(Cl)cc2[N+](=O)[O-])n1`, -2.2%. On to `COc1cc(C2N(c3cc(C)on3)C(=O)C3CCCN32)cc(OC)c1OC` (stereo not shown), for which the “hERG current change (%, negative = inhibition) at 1uM” value worked out at 13.3%. Consider `CCOC(=O)c1c(S(=O)(=O)NCC(=O)Nc2cc(C)ccn2)c(C)n(C)c1C`, for which the “hERG current change (%, negative = inhibition) at 1uM” value is given as 17.2%. For `O=C(Nc1ccccc1)c1sc(Cl)nc1-c1ccccc1`, the “hERG current change (%, negative = inhibition) at 1uM” value was determined as 1.7%. Take `CCc1ccc2[nH]c(C)c(CN3CCCCCC3)c(=O)c2c1`: the “hERG current change (%, negative = inhibition) at 1uM” value was -11.9%.

Take `CSCC[C@H](NC(=O)OC(C)(C)C)c1nnc(SCC(N)=O)o1`: the “hERG current change (%, negative = inhibition) at 1uM” value is on record as -5.4%. The result for `COC(=O)c1c(NC(=O)C(C)(C)C)sc2c1C(C(=O)OC)CC2` (stereo not shown) reads 4.07%; that for `COc1ccccc1N(CN1CCCC1=O)C(=O)COc1ccccc1`, 7.44%; that for `Cc1cccc(NC(=O)CSc2nnc(-c3ccccc3)n2N)c1`, 12.6%. Take `O=C(CCN1C(=O)S/C(=C\c2ccccc2)C1=O)N1CCOCC1`: the “hERG current change (%, negative = inhibition) at 1uM” value is on record as 6.48%. The result for `CC(C)CNS(=O)(=O)c1ccc(CCC(=O)NC2CCCCC2)cc1` reads 5.76%; that for `CN1CCN(c2nc(-c3ccccc3)c3cc(Cl)ccc3n2)CC1`, 2.43%; that for `COc1cc(C2C(C(=O)Nc3ccccc3OC)=C(C)Nc3ncnn32)ccc1O` (stereo not shown), 4.04%. As to `Cc1c(C=O)n(C)n(-c2ccccc2)c1=O`, the “hERG current change (%, negative = inhibition) at 1uM” value was 10.9%. The same measure for `O=C(O)C1C2CCC(C2)C1C(=O)Nc1nc2ccccc2s1` (stereo not shown): 19.2%.

Take `Cc1cc(C)cc(N(CCC#N)C(=O)COC(=O)C2CCN(c3ccc(C(F)(F)F)cn3)CC2)c1`: the “hERG current change (%, negative = inhibition) at 1uM” value is -7.76%. `Cc1ccc2c(c1)cc(CN(Cc1cccnc1)C(=O)NCc1ccccc1)c1nnnn12`: the “hERG current change (%, negative = inhibition) at 1uM” value is reported as -44.4%. The result for `O=C(c1cccc(Br)c1)N1CCN(C(=O)N2CCOCC2)CC1` reads 16.9%; that for `CCN(CC(=O)Nc1c(F)cccc1F)C(=O)c1ccc(C)c(S(=O)(=O)N2CCCCC2)c1`, 11%. On to `CCOC(=O)C1=NOC(Cn2cc(C(C)=O)c(=O)[nH]c2=O)C1` (stereo not shown), for which the “hERG current change (%, negative = inhibition) at 1uM” value was 14.4%. As to `N=c1c(S(=O)(=O)c2ccc(Cl)cc2)cc2c(=O)n3ccccc3nc2n1CC1CCCO1` (stereo not shown), the “hERG current change (%, negative = inhibition) at 1uM” value is 6.52%.

In the case of `COc1ccc(N2C(=O)CCC(C(=O)O)C2c2ccccc2OC)cc1` (stereo not shown), the “hERG current change (%, negative = inhibition) at 1uM” value is 4.68%. The result for `CCC(C)NC(=O)C1CCN(S(=O)(=O)CC)CC1` (stereo not shown) reads 9.03%; that for `Cc1cccc(OCC(=O)NCc2ccc(F)cc2)c1`, 9.91%; that for `CN1CCN(c2nc3ccccc3nc2C(C#N)S(=O)(=O)c2ccccc2)CC1` (stereo not shown), 3.98%. The same measure for `COc1ccc(-c2coc3cc(OC)cc(O)c3c2=O)cc1`: 22.4%; for `Cc1ccc(C)c(N2CCN(C(=O)c3ccc(N4CCCC4=O)cc3)CC2)c1`: -2.82%; for `O=C1NC(c2cccc(Cl)c2)Oc2ccccc21` (stereo not shown): 11%. Turning to `CN1C(=O)c2ccccc2C(C(=O)O)C1c1cccc([N+](=O)[O-])c1` (stereo not shown), the “hERG current change (%, negative = inhibition) at 1uM” value is 13.6%. The same measure for `O=C(O)[C@H](CO)Nc1ncnc2sc3c(c12)CCC3`: 11.9%; for `CCOP(=O)(OCC)C(C)(C)NC(=O)c1cc([N+](=O)[O-])cc([N+](=O)[O-])c1`: 7.38%. The same measure for `COc1ccc(OCc2nc3c4c(ncn3n2)-c2ccccc2CC42CCCC2)cc1`: 9.14%; for `O=C(Cc1coc2ccc3ccccc3c12)N1CCN(c2ncccn2)CC1`: 6.24%.
